Hit rate of the full screen: of about 52,000 compounds, about 4,300 (8.3%) were called active. No stated cut-off is given here; in the data, active means survival mostly below about 52% (no sharp cut-off); inactive means mostly above about 56%. This is one part of the list.
Tested on: DeltatarO mutant
Assay: S. aureus survival, RN4220 and DeltatarO strains – OD600, teichoic acid synthesis inhibitors, primary screen (AID 463173)
Details: S. aureus RN4220 wild type/DeltatarO growth, OD600, 18 h, active compounds read low, screened at 18.75 µg/mL (by protocol)

SMILES | survival
COc1cccc(CNC(=O)C2CCCN(c3nnc(-n4c(C)ccc4C)s3)C2)c1 (stereo unspecified) | inactive: 82%
O=C(NCC(c1cccnc1)N1CCN(Cc2ccccc2)CC1)C(=O)Nc1ccc(F)cc1 (stereo unspecified) | inactive: 89%
COCCNC(=O)c1ccc(NC(=O)N2CCCCc3ccccc32)cc1 | inactive: 58%
CCOc1ccc(CNC(=O)CN2C(=O)CSc3c2c(C)nn3-c2ccccc2)cc1 | inactive: 78%
COc1nc(N(C)C)nc(N(CN2C(=O)c3ccccc3C2=O)S(=O)(=O)c2ccc(C)cc2)n1 | inactive: 95%
O=C(Nc1c(O)c2ccccc2oc1=O)c1ccccc1Cl | inactive: 58%
Cc1ccc(CSc2nc3cccnc3n2Cc2nc(-c3ccccc3F)oc2C)cc1 | inactive: 99%
CCOc1ccc(-n2nc3ccc(NC(=O)COc4ccccc4C)cc3n2)cc1 | inactive: 50%
O=C(C1CC1)N1CCc2cc(Br)cc(S(=O)(=O)Nc3ccc(C(F)(F)F)cc3)c21 | active: 41%
COc1ccc(S(=O)(=O)N(CCc2ccccc2)CC(=O)NCc2ccc(C)cc2)cc1 | inactive: 56%
CCCC(=O)Nc1nnc(S(=O)(=O)N(C)c2ccccc2)s1 | inactive: 108%
CCC1CCCCN1C(=O)CSc1nc(-c2ccc(OC)cc2)cc(C(F)(F)F)n1 (stereo unspecified) | active: 1%
O=C(NC(=S)Nc1ccc(N2CCOCC2)cc1)c1ccccc1 | inactive: 76%
CCn1cc2nc(SCC(=O)Nc3cccc(Cl)c3C)n(Cc3ccc(Cl)cc3)c(=O)c2n1 | inactive: 55%
CCOc1ccc(C(=O)Nc2ccc3nc(SCC(=O)N4CCCC4)sc3c2)cc1 | inactive: 62%
CCc1ccc(CNC(=O)c2cnc3sc(N4CCCCCC4)nn3c2=O)cc1 | inactive: 96%
CC(C)c1ccc(NC(=O)CN(C)S(=O)(=O)c2ccc3c(c2)n(C)c(=O)c(=O)n3C)cc1 | inactive: 85%
CCOC(=O)N1CCN(CCC(=O)Nc2cc(C)ccc2C)CC1 | inactive: 71%
CCn1cnc2cc(NCc3ccc(N(C)C)cc3)ccc21 | inactive: 72%
CCCCn1c(SCc2ccccc2C#N)nc2c(sc3ccccc32)c1=O | inactive: 55%
Cc1ccc(-n2ncc3c(=O)n(Cc4cccc(C(F)(F)F)c4)cnc32)cc1C | inactive: 93%
c1ccn(-c2ccc(N3CCOCC3)cc2)c1 | inactive: 66%
COC(=O)C1=C(C)Nc2nc3ccccc3n2C1c1ccccc1 (stereo unspecified) | inactive: 97%

SMILES | survival
CCOC(=O)Cn1c(=O)cc(C)c2c(C)nn(-c3cccc(F)c3)c21 | inactive: 81%
Cc1ccc2c(c1)-c1onc(C(=O)N(C)c3ccc(F)cc3)c1CO2 | inactive: 65%
Cc1cccc(CC(=O)Nc2cccc(-c3cn4cccnc4n3)c2)c1 | inactive: 94%
CC1=C(C)NC(=S)SC1 | inactive: 101%
CCOc1ccc(NC(=O)Cn2cc(C(=O)c3ccccc3)c(=O)c3cc(OC)ccc32)cc1 | inactive: 73%
COC(=O)c1cc(NC(=O)CCc2c(C)nc3nc(C)nn3c2C)cc(C(=O)OC)c1 | inactive: 84%
CC(=O)N1C(=O)/C(=C2\SC(=S)N(C(C)C(=O)O)C2=O)c2ccccc21 (stereo unspecified) | inactive: 112%
CCN1C(=O)c2ccccc2S(=O)c2ccc(C(=O)N3CCN(c4cccc(Cl)c4)CC3)cc21 (stereo unspecified) | inactive: 59%
O=C(Cc1ccc(F)cc1)NCCc1csc2nc(-c3ccc(Cl)cc3)nn12 | inactive: 95%
O=C(NCc1ccc2c(c1)CCN2C(=O)c1ccncc1)c1cccc(F)c1 | inactive: 96%
CCOC(=O)c1[nH]c(C)c(C(=O)NCc2ccccc2Cl)c1C | inactive: 108%
O=C(CCc1nnc2n(Cc3ccccc3Cl)c(=O)c3ccccc3n12)Nc1ccccc1 | inactive: 86%
CCCCN(c1ccccc1)S(=O)(=O)c1cc2c3c(c1)C(C)C(=O)N3CCC2 (stereo unspecified) | inactive: 69%
COc1ccc(NC(=O)c2ccc(-c3nc(CSc4ccccc4)c(C)o3)cc2)c(OC)c1 | inactive: 74%
CCc1ccc(S(=O)(=O)Nc2ccc3oc(C)c(C(=O)OCCOC)c3c2)cc1 | active: 32%
Cc1cccc(NC(=O)c2cc3c(C)nn(-c4ccccc4)c3s2)c1 | active: 6%
COc1ccc(CNC(=O)C2CCN(S(=O)(=O)Cc3ccccc3)CC2)cc1 | inactive: 107%
O=C(Cc1ccccc1)NCc1ccccn1 | inactive: 93%
CC(=O)C(Sc1nc(-c2ccccc2Cl)nc2c1c(=O)n(C)c(=O)n2C)C(=O)N(C)C (stereo unspecified) | inactive: 75%
CCCCN(CC)C(=O)Cn1cc2c(n1)-c1c(oc(C(=O)N3CCCC3)c1C)CC2 | inactive: 76%
CCOc1ccc(C2c3[nH]c4ccccc4c3CCN2C(=O)CCC2CCCC2)cc1 (stereo unspecified) | inactive: 90%
CCOC(=O)C1CCCN(S(=O)(=O)c2cc(Br)cc3c2N(C(=O)CC)CC3)C1 (stereo unspecified) | inactive: 60%
Fc1ccc(-n2ncc3c(NCCCc4ccccc4)ncnc32)cc1 | inactive: 109%

SMILES | survival
Cc1ccc(COC(=O)c2ccc(-c3nnn(Cc4ccc(C)cc4)n3)cc2)cc1 | inactive: 69%
CCN(CCCNC(=O)CN1N=C(c2ccc(C)cc2)CCC1=O)c1ccccc1 | active: 0%
O=c1cc(-c2ccccc2)nc(SCc2nc(-c3cccc(C(F)(F)F)c3)no2)[nH]1 | inactive: 92%
Cc1nn(-c2ccc(N3CCCCC3)nn2)c(C)c1CCC(=O)Nc1cccc(F)c1 | inactive: 73%
Cc1ccn2c(=O)c(NC(=O)c3cccc([N+](=O)[O-])c3C)c(C)nc2c1 | inactive: 55%
O=C(NCCCc1ccccc1)c1ccc2c(c1)sc1nc(-c3ccc(F)cc3)cn12 | active: 44%
Cc1ccccc1CN1C(=O)c2ccccc2Sc2ccc(C(=O)NCCCN3CCOCC3)cc21 | inactive: 95%
CCC(=O)N=c1sc2ccccc2n1C | inactive: 87%
CCOc1ccc(CC(=O)NCc2ccc3c(c2)CCN3C(=O)c2ccc(F)cc2)cc1OCC | inactive: 92%
Cc1ccc(Sc2c(C)nn(-c3ccccc3)c2OC(=O)CC(C)C)cc1 | active: 21%
CC1(C)CC2(C=CC(=O)CC2)CCO1 (stereo unspecified) | inactive: 80%
O=C(NC1CCCCC1)c1ccc2ccccc2n1 | inactive: 79%
CC(=O)c1ccc(S(=O)(=O)Nc2cccc(-c3ccc(N4CCCC4)nn3)c2)cc1 | inactive: 89%
COc1ccc(C2CC(=O)C=C(NCCC(C)C)C2)cc1 (stereo unspecified) | inactive: 111%
Cc1ccc(NC(=O)NCc2c(-n3cccc3)sc3c2CCCC3)c(Cl)c1 | inactive: 86%
Cc1ccc(CNC(=O)CCCn2nc(C)n3c(cc4sccc43)c2=O)cc1 | inactive: 83%
CCN(Cc1ccccc1)S(=O)(=O)c1ccc(F)c(C(=O)Nc2ccc(C(C)C)cc2)c1 | inactive: 101%
Cc1cccc(C)c1NC(=O)c1cc2sccc2n1Cc1ccc(F)cc1 | inactive: 96%
COc1ccc(OC)c(CNc2ncc(-c3ccc(Cl)cc3)n2C)c1 | active: 25%
CCOC(=O)c1cccc(NC(=O)NC2COc3ccccc3C2)c1 (stereo unspecified) | inactive: 98%
Cc1ccc(CNC(=O)c2cn(C)c3ccc(S(=O)(=O)N4CCC(C)CC4)cc3c2=O)cc1 | inactive: 69%
O=C(CN1CCN(c2nc3ccccc3s2)CC1)Nc1ccc2c(c1)OCO2 | inactive: 94%
COc1ccccc1NC(=O)c1oc2ccccc2c1NC(=O)c1c(F)cccc1F | inactive: 51%

SMILES | survival
CCOC(=O)C1(C)C=C(Nc2ccc(OC)cc2)C(=O)N1c1ccccc1 (stereo unspecified) | inactive: 60%
Cc1cc(C)cc(NC(=O)C2CCCN2S(=O)(=O)c2ccc3c(c2)C(C)(C)C(=O)N3C)c1 (stereo unspecified) | inactive: 52%
Cc1ccc(-c2nnn(CC(=O)NC(C)C)n2)cc1 | inactive: 83%
COC(=O)c1cc2oc3ccccc3c2n1Cc1nc(-c2cccc(Cl)c2)oc1C | inactive: 133%
CCc1ccc(Nc2nn3c(=O)c4cc5c(cc4nc3s2)OCO5)cc1 | inactive: 73%
O=C(Nc1cccc(Cl)c1Cl)c1cc(S(=O)(=O)N2CCC3(CC2)OCCO3)ccc1F | inactive: 60%
COc1cc(OC)cc(C(=O)Nc2ccc(S(=O)(=O)N3CCCCC3c3cccnc3)cc2)c1 (stereo unspecified) | inactive: 99%
Cc1ccc(-n2nc3c(N4CCC(C(=O)N5CCC(C)CC5)CC4)nnc(C)c3c2C)cc1 | inactive: 107%
Cc1cc(C)c(Cn2c3ccccc3c3cnn(CC(=O)NC4CCCCCC4)c(=O)c32)c(C)c1 | inactive: 133%
CCN(CC)c1ccc(/C=C2/SC(=O)NC2=O)cc1 | active: 34%
COc1ccc(Cn2cc(C(=O)c3ccc(Cl)cc3)c(=O)c3cc4c(cc32)OCO4)cc1 | inactive: 56%
O=C(c1ccccc1N=Nc1c(O)[nH]c(=O)[nH]c1=O)N1CCOCC1 | inactive: 95%
Cc1ccc(C)c(N2CCN(C(=O)c3cc4c(=O)n(Cc5cccnc5)ccc4nc3C)CC2)c1 | active: 46%
NC(=O)Cn1c2[n+](c3ccccc31)CC(O)CS2 (stereo unspecified) | inactive: 81%
O=C(O)C1CCN1C1CCCCC1 (stereo unspecified) | inactive: 64%
Cc1cccc(CSc2nc3cccnc3n2Cc2ccc(C(=O)NCc3cccs3)cc2)c1 | inactive: 93%
COc1ccc(NC(=O)CSc2nc3ccccc3n2CC(=O)N2CCCC(C)C2)cc1 (stereo unspecified) | inactive: 88%
CCn1c(=O)c2cc(C(=O)Nc3cc(C)c(Cl)cc3OC)sc2c2ccccc21 | inactive: 69%
Cc1cccc(C(=O)Nc2c(-c3ccc(F)cc3)nc3ccccn23)c1 | inactive: 91%
Cc1cc(C)n(-c2nc3cc(Cl)c(Cl)cc3nc2Nc2ccc(F)cc2C)n1 | inactive: 89%
CC(C)Cn1c(=O)c2sccc2n2c(CCCC(=O)NCC(C)c3ccccc3)nnc12 (stereo unspecified) | inactive: 91%
Cc1c(C(=O)NC2CCCCC2)oc2ccccc12 | inactive: 101%
